The structures appear in SMILES notation. The campaign covered roughly 310,000 compounds. About 14,000 (4.5%) showed an effect of 50% or more. Effects have a minus sign here. The list shows a part of the results.
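Note: peak tail current of the secondary pulse compared with the same well before compound.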

Sequence of human ether-à-go-go-related gene (hERG) potassium channel (Q12809 whole entry, looked up): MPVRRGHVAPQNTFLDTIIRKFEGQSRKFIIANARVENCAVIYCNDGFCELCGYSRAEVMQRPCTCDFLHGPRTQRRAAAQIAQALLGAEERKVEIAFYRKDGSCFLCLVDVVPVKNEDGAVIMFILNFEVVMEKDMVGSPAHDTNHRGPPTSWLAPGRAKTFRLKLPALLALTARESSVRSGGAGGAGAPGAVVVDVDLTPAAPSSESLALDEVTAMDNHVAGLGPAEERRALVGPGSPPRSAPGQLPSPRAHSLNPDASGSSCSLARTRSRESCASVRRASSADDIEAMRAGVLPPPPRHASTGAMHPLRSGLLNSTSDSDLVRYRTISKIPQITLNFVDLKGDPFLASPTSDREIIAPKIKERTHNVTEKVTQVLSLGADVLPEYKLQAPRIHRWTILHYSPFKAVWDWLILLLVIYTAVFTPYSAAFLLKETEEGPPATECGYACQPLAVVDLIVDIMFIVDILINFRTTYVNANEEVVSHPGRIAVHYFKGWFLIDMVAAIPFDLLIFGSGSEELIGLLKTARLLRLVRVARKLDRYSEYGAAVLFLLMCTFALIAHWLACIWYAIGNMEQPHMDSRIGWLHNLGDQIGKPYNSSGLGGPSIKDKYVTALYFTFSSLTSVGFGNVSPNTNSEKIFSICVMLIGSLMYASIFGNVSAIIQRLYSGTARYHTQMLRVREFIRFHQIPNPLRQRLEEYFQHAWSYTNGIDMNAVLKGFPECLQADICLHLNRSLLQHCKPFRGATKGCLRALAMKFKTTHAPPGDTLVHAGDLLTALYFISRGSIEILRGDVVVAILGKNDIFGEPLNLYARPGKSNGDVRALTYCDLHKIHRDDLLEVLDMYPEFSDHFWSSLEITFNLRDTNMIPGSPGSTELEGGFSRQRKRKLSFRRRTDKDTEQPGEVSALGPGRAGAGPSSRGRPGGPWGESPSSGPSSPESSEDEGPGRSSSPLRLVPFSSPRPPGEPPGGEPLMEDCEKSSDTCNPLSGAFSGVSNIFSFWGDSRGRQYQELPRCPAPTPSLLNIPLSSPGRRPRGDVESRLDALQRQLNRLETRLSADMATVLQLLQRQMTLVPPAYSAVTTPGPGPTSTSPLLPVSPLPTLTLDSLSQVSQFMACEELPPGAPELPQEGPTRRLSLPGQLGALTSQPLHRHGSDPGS

The test addresses human ether-à-go-go-related gene (hERG) potassium channel (human, UniProt Q12809). The experiment in a line: primary screen, population patch clamp on CHO cells stably expressing hERG.
In the case of `Cc1ccccc1OCC(O)Cn1c(N2CCCCC2)nc2c1c(=O)[nH]c(=O)n2C` (centres unmarked), the “hERG current change (%, negative = inhibition) at 10uM” value stood at 10.4%.
In the case of `CN1CCCN(C(c2ccccc2)c2ccc(Cl)cc2)CC1.Cl` (centres unmarked) it was -73.8%; in that of `O=C(/C=C/c1cccs1)c1ccc(NC(=O)c2cccc(Br)c2)cc1`, 17.6%.
In the case of `N#Cc1ccc(-c2csc(NC(=O)c3ccc(S(=O)(=O)N4CCc5ccccc5C4)cc3)n2)cc1` it was 2.04%; in that of `CC(C)(CC(=O)O)CC(=O)Nc1cc(C(F)(F)F)cc(C(F)(F)F)c1`, 15.9%; in that of `CCN(CC)c1ccc(/C=C2\CCC(/C=N/NC(=O)c3ccc(=O)n(C)c3)=C2N2CCOCC2)cc1`, 9.64%.
For the molecule `N#CC(=C=[N-])/C=C(\C(=O)c1ccccc1)[n+]1ccccc1`, the “hERG current change (%, negative = inhibition) at 10uM” value turned out to be 9.31%.
For `CCOC(=O)N1CCN(c2cc(=O)n(-c3cccc(Br)c3)c(=O)[nH]2)CC1` the value was 9.31%; for `CCOc1ccc(N2C(=O)CC(SC(=NC)Nc3ccc(F)cc3)C2=O)cc1` (centres unmarked), 0.77%; for `COc1ccc(C(=O)O)cc1S(=O)(=O)NC(C)C`, 8.33%.
In the case of `Cc1ccc2nc(SCc3ccccc3)c(C=O)c(=O)n2c1` it was 7.31%.
For `CCOc1ccccc1NS(=O)(=O)c1ccc(-c2cnc(C3CC3)o2)cc1` the value was 12.8%; for `O=C(N/N=C\c1ccc([N+](=O)[O-])s1)c1cncc(Br)c1`, -1.82%; for `Cc1ccc(SCCC(=O)OCC(=O)Nc2ccc(C(N)=O)cc2)cc1`, 6.03%.
With `O=C(COC(=O)c1cc(S(=O)(=O)N2CCOCC2)ccc1Cl)NC1CC1`, the “hERG current change (%, negative = inhibition) at 10uM” value came out at 12.3%.
For `NS(=O)(=O)c1ccc(CCNC(=O)c2ccc3c(c2)OCO3)cc1` the value was 18.1%; for `C=CCNC(=O)/C(C#N)=C/c1cn(-c2ccccc2)nc1-c1cccs1`, -26.2%.
For `Cc1ccc(S(=O)(=O)C(C#N)c2nc3ccccc3nc2OC(C)C)cc1` (centres unmarked) the value was -5.65%.
Regarding `CCCC1=C(C(=O)OCC)C(c2sccc2C)n2ncnc2N1` (centres unmarked), the “hERG current change (%, negative = inhibition) at 10uM” value amounted to 8.12%.
In the case of `CC(C)CC(NC(=O)OC(C)(C)C)C(=O)O.O` (centres unmarked) it was 3.52%; in that of `Cc1csc(N/N=C/c2ccc([N+](=O)[O-])cc2)n1`, 1.1%; in that of `CCOC(=O)c1c(C)nc2c(c1-c1ccccc1)C(=O)CC(C)(C)C2`, -16.8%.
In the case of `N#Cc1c(NC(=O)C2CCCO2)sc2c1CCCCC2` (centres unmarked) it was 7.62%.
With `Cn1nccc1C(=O)N1CCN(c2ccccc2F)CC1`, the “hERG current change (%, negative = inhibition) at 10uM” value was 12.5%.
In the case of `COC(=O)c1cc2ccsc2n1Cc1nc(-c2ccc(OC)cc2)oc1C` it was 15.7%; in that of `COc1cccc(Nc2nc(C)cc(C)c2C(N)=O)c1`, 18.9%; in that of `O=C(NC1CCCCC1)c1ccc(OC2CCN(Cc3ccccn3)CC2)cc1`, -16%.
Turning to `CC1CN(c2ccc([N+](=O)[O-])cc2C#N)CC(C)O1` (centres unmarked), the “hERG current change (%, negative = inhibition) at 10uM” value is reported as -48.6%.
In the case of `CC(C)C[C@H](NC(=O)C1CC(=O)N(c2ccc3c(c2)OCCO3)C1)C(=O)N1CCCCC1` (some centres unmarked) it was 2.06%; in that of `CN1C(C(=O)NCc2ccc(OC(F)(F)F)cc2)CC2Cn3c(nc4cc(Cl)c(Cl)cc43)C21` (centres unmarked), -77.9%.
In the case of `O=C(CN1C(=O)c2ccccc2C1=O)NCc1ccccn1` it was 2.64%.
For `CCOC(=O)CNC(=O)CSc1nc(N(C)C)nc(N2CCOCC2)n1` the value was 19.2%; for `Cc1ccccc1CSc1nc2ccccc2c(=O)[nH]1`, 0.279%; for `C=CCn1c(=O)c2c(C)c(C)sc2n2c(Nc3ccc(OC)cc3)nnc12`, 3.59%.
On to `CCCCc1ccc(NC(=S)NN2CCOCC2)cc1`, for which the “hERG current change (%, negative = inhibition) at 10uM” value worked out at 5.15%.
`COc1ccc(N(CC(=O)NCCSCc2c(F)cccc2Cl)S(C)(=O)=O)cc1OC`: the “hERG current change (%, negative = inhibition) at 10uM” value was -6.45%.
In the case of `CCc1sc(NC(=O)c2cc3ccccc3oc2=O)nc1-c1cccs1` it was 9.1%; in that of `CC(C)Oc1ccc(N2CC(C(=O)NC3=NCCS3)CC2=O)cc1` (centres unmarked), 5.56%; in that of `COc1ccccc1NC(=O)CC(=O)c1ccccc1`, 18.3%.
For the molecule `CN(C)/C=N/C(=S)Nc1ccccc1Cl`, the “hERG current change (%, negative = inhibition) at 10uM” value worked out at 16.6%.
For `COc1ccc(CNCC(O)(c2ccccc2)c2ccccc2)cc1` the value was -64%.
In the case of `Nc1cccc(Cl)c1N1CCOCC1` it was 8.66%.
For `Cc1ccsc1CN(C(=O)c1ccc([N+](=O)[O-])cc1)C1CCS(=O)(=O)C1` (centres unmarked) the value was -60.8%; for `COc1cc(NC(=O)CSc2ncnc3scc(-c4ccccc4)c23)c(C(=O)O)cc1OC`, -45.7%.

The values are drawn from publication PMC4336329 (PLoS ONE, 2015).
